Drawing on article PMC12245028, this text covers binding for four substances.

Chains of the proteins cited; added tags and fusions are not shown. Lines headed by an entry give the natural chain unless they say otherwise; changes in a name come on top.
UniProt P30291: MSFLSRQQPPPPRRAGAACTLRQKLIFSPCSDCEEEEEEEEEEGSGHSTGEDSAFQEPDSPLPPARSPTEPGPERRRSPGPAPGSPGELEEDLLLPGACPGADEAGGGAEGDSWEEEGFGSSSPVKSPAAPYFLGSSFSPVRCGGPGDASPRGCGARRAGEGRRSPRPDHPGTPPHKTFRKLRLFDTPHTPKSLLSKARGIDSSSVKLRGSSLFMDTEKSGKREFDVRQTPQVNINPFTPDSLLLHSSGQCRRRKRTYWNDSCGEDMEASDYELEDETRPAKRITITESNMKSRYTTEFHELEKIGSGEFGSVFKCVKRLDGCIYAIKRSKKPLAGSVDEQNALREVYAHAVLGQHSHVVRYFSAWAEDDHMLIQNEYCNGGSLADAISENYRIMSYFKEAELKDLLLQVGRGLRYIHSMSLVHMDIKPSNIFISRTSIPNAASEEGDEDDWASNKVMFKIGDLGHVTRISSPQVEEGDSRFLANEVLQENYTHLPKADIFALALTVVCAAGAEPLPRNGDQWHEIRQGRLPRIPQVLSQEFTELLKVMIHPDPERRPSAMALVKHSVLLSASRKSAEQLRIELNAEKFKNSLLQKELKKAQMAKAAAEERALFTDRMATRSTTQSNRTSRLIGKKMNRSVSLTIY
UniProt P47810: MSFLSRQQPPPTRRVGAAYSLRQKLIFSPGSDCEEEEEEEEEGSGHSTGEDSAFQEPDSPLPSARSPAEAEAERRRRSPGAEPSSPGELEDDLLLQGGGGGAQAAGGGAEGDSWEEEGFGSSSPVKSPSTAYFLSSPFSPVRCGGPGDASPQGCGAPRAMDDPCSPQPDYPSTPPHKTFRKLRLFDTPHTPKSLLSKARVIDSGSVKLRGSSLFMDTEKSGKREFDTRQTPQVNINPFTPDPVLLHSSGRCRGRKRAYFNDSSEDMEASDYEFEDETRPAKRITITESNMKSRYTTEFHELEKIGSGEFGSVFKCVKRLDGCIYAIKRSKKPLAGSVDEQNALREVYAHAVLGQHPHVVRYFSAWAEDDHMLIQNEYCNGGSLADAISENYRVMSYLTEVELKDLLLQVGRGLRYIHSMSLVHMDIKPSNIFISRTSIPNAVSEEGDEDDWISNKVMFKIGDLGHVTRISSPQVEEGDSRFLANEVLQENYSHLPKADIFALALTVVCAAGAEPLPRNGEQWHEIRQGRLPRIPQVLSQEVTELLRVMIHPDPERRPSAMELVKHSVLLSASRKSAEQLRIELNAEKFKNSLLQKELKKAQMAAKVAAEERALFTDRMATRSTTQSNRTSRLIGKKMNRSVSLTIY
UniProt Q04206: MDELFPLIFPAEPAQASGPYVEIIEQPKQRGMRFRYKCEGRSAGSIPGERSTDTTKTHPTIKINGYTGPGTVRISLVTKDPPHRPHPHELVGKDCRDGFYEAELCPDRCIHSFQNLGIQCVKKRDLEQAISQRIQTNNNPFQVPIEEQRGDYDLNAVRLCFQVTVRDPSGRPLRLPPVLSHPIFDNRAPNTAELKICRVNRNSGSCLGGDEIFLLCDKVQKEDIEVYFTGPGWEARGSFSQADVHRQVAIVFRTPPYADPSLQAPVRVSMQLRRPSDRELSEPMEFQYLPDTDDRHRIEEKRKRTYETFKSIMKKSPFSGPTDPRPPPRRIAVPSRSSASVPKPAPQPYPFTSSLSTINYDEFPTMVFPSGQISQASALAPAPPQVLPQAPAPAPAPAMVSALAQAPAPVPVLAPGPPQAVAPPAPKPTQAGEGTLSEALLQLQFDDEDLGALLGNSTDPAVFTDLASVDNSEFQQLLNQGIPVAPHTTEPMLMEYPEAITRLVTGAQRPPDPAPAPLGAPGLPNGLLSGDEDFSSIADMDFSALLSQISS
UniProt Q04207: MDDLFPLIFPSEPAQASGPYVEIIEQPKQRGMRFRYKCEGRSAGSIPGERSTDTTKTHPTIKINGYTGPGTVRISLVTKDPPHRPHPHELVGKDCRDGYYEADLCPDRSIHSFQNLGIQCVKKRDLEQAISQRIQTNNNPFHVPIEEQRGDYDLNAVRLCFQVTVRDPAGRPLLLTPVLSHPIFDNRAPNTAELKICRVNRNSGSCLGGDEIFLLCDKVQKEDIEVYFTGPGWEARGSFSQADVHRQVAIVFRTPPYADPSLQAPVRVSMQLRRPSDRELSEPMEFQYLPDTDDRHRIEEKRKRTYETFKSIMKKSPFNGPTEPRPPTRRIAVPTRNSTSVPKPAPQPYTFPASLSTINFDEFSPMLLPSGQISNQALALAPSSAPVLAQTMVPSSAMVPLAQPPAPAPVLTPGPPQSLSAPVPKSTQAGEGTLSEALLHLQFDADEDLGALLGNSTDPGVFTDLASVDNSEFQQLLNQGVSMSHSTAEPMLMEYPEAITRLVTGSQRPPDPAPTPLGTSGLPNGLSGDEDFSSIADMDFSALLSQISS

Results are given in words; binding and its absence hold for the method and conditions named. In cells and extracts the contact can be indirect. Some binding calls cover weakened binding; strength is not graded here.

Assay [1] concerns the target HA‐WEE1^WT (UniProt P30291). As to the kind of experiment: co-IP; 293T cells transfected with HA-WEE1 (WT or S642A); immunoprecipitated by anti-HA antibody, Protein A+G agarose; blot for endogenous p65 and PRDX1; IgG control.
A further assay has as its target HA‐WEE1^S642A (UniProt P30291). Described as above.
Assay [2] has as its target HA‐WEE1^WT (UniProt P30291). The assay is described as follows: condition: only cells pretreated with MK1775 (10 µM); co-IP; 293T cells pretreated with MK1775 (10 µM) for 1 h, then transfected with HA-WEE1 for 24 h; HA-WEE1 immunoprecipitated by anti-HA antibodies; blot for p65.
For assay [3], the target named is HA‐WEE1^WT (UniProt P30291). As to the kind of experiment: co-IP; 293T cells pretreated with PTD-p65 peptide (100 µM) or vehicle (DMSO, 1‰) for 1 h, then transfected with HA-WEE1 for 24 h; HA-WEE1 immunoprecipitated by anti-HA antibodies; blot for p65.
Assay [4] deals with WEE1 (mouse, endogenous) (mouse (endogenous in MPMs and aortic tissue)) (UniProt P47810). As to the kind of experiment: co-IP; mouse primary peritoneal macrophages challenged with oxLDL (50 µg mL^-1) for 1 h; WEE1 immunoprecipitated by anti-WEE1 antibody; blot for p65.
Assay [5] shares this target. As to the kind of experiment: co-IP; aortic tissues of LFD- and HFD-fed ApoE−/− mice; WEE1 immunoprecipitated by anti-WEE1 antibody; blot for p65.
For assay [6], the target named is HA‐WEE1^WT (UniProt P30291). The assay is described as follows: co-IP; 293T cells transfected with HA-WEE1 and Flag-p65 or one of two p65 domain constructs; HA-WEE1 immunoprecipitated by anti-HA antibodies.
In the next assay the target is Flag‐p65^WT (UniProt Q04206). The assay is described as follows: co-IP; 293T cells transfected with Flag-p65 and HA-WEE1 or the WEE1 kinase domain construct; Flag-p65 immunoprecipitated by anti-Flag antibodies.

On to “NF‐κB p65 subunit (RELA, Transcription factor p65) (from UniProt Q04206 1-551)”, for which the binding result with HA‐WEE1^WT [1] is “binds”; in the assay with HA‐WEE1^S642A, “no binding”; with HA‐WEE1^WT [2], “no binding”; with HA‐WEE1^WT [3], “binds”.
With “NF‐κB p65 subunit (mouse, endogenous) (from UniProt Q04207 1-549)”, the binding result in assay [4] and in assay [5] was “binds” in each case.
Turning to “Flag‐p65^RHD (from UniProt Q04206 19-306) (domain or fragment)”, the binding result with HA‐WEE1^WT [6] was “binds”.
Turning to “HA‐WEE1^KD (from UniProt P30291 299-569) (domain or fragment)”, the binding result with Flag‐p65^WT was “binds”.
